In all, about 48,000 compounds went through this assay and about 550 (1.1%) were called active. About 4% were inconclusive and are not listed. Cut-off read from the data, not from the text of the source: active = potency below about 15 µM; inconclusive = mostly about 16 µM to 33 µM; inactive = weaker than that. The list shows a part of the results.
These compounds were tested against Lysosomal acid glucosylceramidase (Homo sapiens) (UniProt P04062) (assay: Glucocerebrosidase). Conditions: purified enzyme, resorufin glucoside fluorescence (screen aimed at inhibitors), 20 min.
Procedure, shortened: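 Normal human glucocerebrosidase (0.2 nM final) was assayed with resorufin β-D-glucopyranoside (30 uM final) in 50mM citric acid/KH2PO4, 10mM sodium taurocholate, 0.01% tween-20, pH 5.9. Compounds were titrated; fluorescence (Ex 548, Em 600) read after 20 min at RT.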
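Note: the screen sought inhibitors.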
Potency is the fitted concentration of half-maximal effect.

UniProt P04062, sequence (P04062 whole entry, looked up): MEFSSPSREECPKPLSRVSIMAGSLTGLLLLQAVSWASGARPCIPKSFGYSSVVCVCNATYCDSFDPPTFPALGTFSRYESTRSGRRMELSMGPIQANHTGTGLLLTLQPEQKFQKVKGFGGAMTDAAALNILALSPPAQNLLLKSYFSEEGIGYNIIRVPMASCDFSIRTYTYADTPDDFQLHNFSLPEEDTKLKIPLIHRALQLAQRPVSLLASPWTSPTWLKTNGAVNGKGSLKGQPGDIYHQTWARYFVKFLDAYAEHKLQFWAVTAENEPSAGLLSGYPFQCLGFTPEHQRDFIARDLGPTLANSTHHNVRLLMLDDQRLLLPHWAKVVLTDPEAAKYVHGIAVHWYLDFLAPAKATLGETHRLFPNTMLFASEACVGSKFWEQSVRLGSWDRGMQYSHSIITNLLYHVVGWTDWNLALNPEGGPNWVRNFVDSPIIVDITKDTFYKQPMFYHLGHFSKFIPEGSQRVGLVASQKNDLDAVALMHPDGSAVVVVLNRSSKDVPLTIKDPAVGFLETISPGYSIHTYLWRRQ

Potency, inactive:
O=C(CSc1nc(-c2ccco2)cc(C(F)(F)F)n1)Nc1cccnc1 > 76.9 µM
CCOC(=O)C1CCN(C(=O)CN2C(=O)C(CC)Oc3ccccc32)CC1 (stereo not given) > 76.9 µM
CCCCCC(=O)OC(CN1CCCCC1)CN1CCCC1=O (stereo not given) > 76.9 µM
O=C(CSc1nnc(CNc2ccccc2)o1)N1CCCc2ccccc21 > 76.9 µM
CCC(=O)n1nc(-c2ccco2)nc1SCc1ccccc1 > 76.9 µM
Cc1noc(C)c1S(=O)(=O)N1CCC(C(=O)N2CCN(c3ccc(F)cc3)CC2)CC1 > 76.9 µM
O=C(CSc1nnc(-c2ccc(S(=O)(=O)N3CCOCC3)cc2)o1)c1ccccc1F > 76.9 µM
CC(CCc1ccccc1)NC(=O)c1ccncc1 (stereo not given) > 76.9 µM
O=C(NCc1ccc(N2CCCC2=O)cc1)Nc1ccccc1 > 76.9 µM
Cc1ccc(SCCNC(=O)CN2C(=O)c3ccccc3S2(=O)=O)cc1 > 76.9 µM
CCCC(=O)N1CCN(c2ccc(NC(=O)c3cc4ccccc4o3)cc2)CC1 > 76.9 µM
O=C(Nc1nncs1)c1ccc(Br)c(S(=O)(=O)N2CCCC2)c1 > 76.9 µM
CCSc1nnc(-c2cccc(S(=O)(=O)N(CC)CC)c2)n1Cc1ccccc1 > 76.9 µM
Cc1ccc(OCc2nc(C#N)c(NCc3ccco3)o2)cc1 > 76.9 µM
Cc1ccsc1C(=O)OCC(=O)N1CC(=O)Nc2ccccc21 > 76.9 µM
O=C(Cn1nnc(-c2cccs2)n1)N1CCc2ccccc2C1 > 76.9 µM
CCOc1ccc(OCC)c(NC(=O)CSc2nc3cccnc3n2C)c1 > 76.9 µM
CC(C)OC(=O)CN1C(=O)C(C)(C)Oc2ccc(C(=O)NC3CC3)cc21 > 76.9 µM
COc1cccc(-c2nn(C)c3sc(C(=O)NCc4ccccn4)cc23)c1 > 76.9 µM
CCOC(=O)c1[nH]c(C)c(C(=O)NC2CCN(C(=O)OCC)CC2)c1C > 76.9 µM
COc1cccc(NC(=O)N2CCC(C(N)=O)(N3CCCCC3)CC2)c1 > 76.9 µM
CCN=C1SC(C(=O)Nc2cccc(C(=O)O)c2)CC(=O)N1CC (stereo not given) > 76.9 µM
Cc1ccc(-n2nc3c(c2NC(=O)c2cccs2)CSC3)cc1 > 76.9 µM
COc1ccccc1CC1(C)NC(=O)N(CC(=O)N2CCc3ccccc3C2)C1=O (stereo not given) > 76.9 µM
CCOc1cccc(=O)c2c(C)n(C)c(C)c12 > 76.9 µM

From PubChem BioAssay AID360 (National Center for Advancing Translational Sciences (NCATS), 2006)
